The supplement of paper PMC8728848
The list shows a part of the results.

Key:
Test in all cases: glycan array binding signal (z-score within array); higher = stronger binding
Details in all cases: glycan notation: IUPAC condensed, linker removed
[1] = target: Neu5Ac(a2-3)Gal(b1-4)[Fuc2Me(a1-3)]GlcNAc(b1-3)Gal
Summary of the method: (§1)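 Glycan array data were curated from 3228 arrays in the Consortium for Functional Glycomics database and kept only where the protein sequence was available. Glycan names were converted to IUPAC-condensed notation, and columns mapping to the same glycan were averaged. The binding signal is a within-array Z-score, averaged across arrays of the same protein sequence at different concentrations or buffers and across linkers. Negative Z-scores can be read as non-binding.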

[2] = target: Neu5Ac(a2-3)Gal(b1-4)[Qui(a1-3)]GlcNAc(b1-3)Gal
Summary of the method: as §1

[3] = target: Neu5Ac(a2-3)Gal(b1-4)[Rha(a1-3)]GlcNAc(b1-3)Gal
Summary of the method: as §1

[4] = target: Neu5Ac(a2-3)Gal3S
Summary of the method: as §1

[5] = target: Neu5Ac(a2-3)Gal6S(b1-4)[Fuc(a1-3)]GlcNAc(b1-3)Gal(b1-4)Glc
Summary of the method: as §1

[6] = target: Neu5Ac(a2-3)Gal6S(b1-4)[Fuc(a1-3)]GlcNAc6S(b1-3)Gal(b1-4)Glc
Summary of the method: as §1

[7] = target: Neu5Ac(a2-3)GalNAc(b1-4)GlcNAc
Summary of the method: as §1

[8] = target: Neu5Ac(a2-3)GalNBz(b1-4)GlcNAc
Summary of the method: as §1

[9] = target: Neu5Ac(a2-3)[GalNAc(b1-4)]Gal(b1-3)Gal
Summary of the method: as §1

[10] = target: Neu5Ac(a2-3)[GalNAc(b1-4)]Gal(b1-3)GalNAc(b1-4)[Neu5Ac(a2-3)]Gal(b1-4)Glc
Summary of the method: as §1

[11] = target: Neu5Ac(a2-3)[GalNAc(b1-4)]Gal(b1-3)Glc
Summary of the method: as §1

[12] = target: Neu5Ac(a2-3)[GalNAc(b1-4)]Gal(b1-4)Glc
Summary of the method: as §1

[13] = target: Neu5Ac(a2-3)[GalNAc(b1-6)]Gal(b1-4)Glc
Summary of the method: as §1

[14] = target: Neu5Ac(a2-6)Gal
Summary of the method: as §1

[15] = target: Neu5Ac(a2-6)Gal(b1-3)GalNAc(b1-4)Gal(b1-4)Glc
Summary of the method: as §1

[16] = target: Neu5Ac(a2-6)Gal(b1-3)GlcNAc(b1-3)[Fuc(a1-3)[Gal(b1-4)]GlcNAc(b1-6)]Gal(b1-4)Glc
Summary of the method: as §1

[17] = target: Neu5Ac(a2-6)Gal(b1-3)GlcNAc(b1-3)[Gal(b1-4)GlcNAc(b1-6)]Gal(b1-4)Glc
Summary of the method: as §1

[18] = target: Neu5Ac(a2-6)Gal(b1-3)[Neu5Ac(a2-6)]GalNAc(b1-4)Gal(b1-4)Glc
Summary of the method: as §1

[19] = target: Neu5Ac(a2-6)Gal(b1-4)Glc
Summary of the method: as §1

[20] = target: Neu5Ac(a2-6)Gal(b1-4)GlcNAc
Summary of the method: as §1

[21] = target: Neu5Ac(a2-6)Gal(b1-4)GlcNAc(b1-2)Man(a1-3)[Neu5Ac(a2-6)Gal(b1-4)GlcNAc(b1-2)Man(a1-6)]Man(b1-4)GlcNAc(b1-4)GlcNAc
Summary of the method: as §1

[22] = target: Neu5Ac(a2-6)Gal(b1-4)GlcNAc(b1-2)Man(a1-3)[Neu5Gc(a2-6)Gal(b1-4)GlcNAc(b1-2)Man(a1-6)]Man(b1-4)GlcNAc(b1-4)GlcNAc
Summary of the method: as §1

[23] = target: Neu5Ac(a2-6)Gal(b1-4)GlcNAc(b1-2)[Neu5Ac(a2-3)Gal(b1-4)GlcNAc(b1-4)]Man(a1-3)[Neu5Ac(a2-3)Gal(b1-4)GlcNAc(b1-2)Man(a1-6)]Man(b1-4)GlcNAc(b1-4)GlcNAc
Summary of the method: as §1

[24] = target: Neu5Ac(a2-6)Gal(b1-4)GlcNAc(b1-3)Gal(b1-4)Glc
Summary of the method: as §1

[25] = target: Neu5Ac(a2-6)Gal(b1-4)GlcNAc(b1-3)Gal(b1-4)[Fuc(a1-3)]Glc
Summary of the method: as §1

[26] = target: Neu5Ac(a2-6)Gal(b1-4)GlcNAc(b1-3)[Neu5Ac(a2-6)Gal(b1-4)GlcNAc(b1-6)]Gal(b1-4)Glc
Summary of the method: as §1

[27] = target: Neu5Ac(a2-6)Gal(b1-4)GlcNAc(b1-6)[Gal(b1-3)GlcNAc(b1-3)]Gal(b1-4)Glc
Summary of the method: as §1

[28] = target: Neu5Ac(a2-6)Gal(b1-4)[Fuc(a1-3)]GlcNAc(b1-3)Gal(b1-4)Glc
Summary of the method: as §1

[29] = target: Neu5Ac(a2-6)Gal(b1-6)GalNAc(b1-4)Gal(b1-4)Glc
Summary of the method: as §1

[30] = target: Neu5Ac(a2-6)Gal6S
Summary of the method: as §1

[31] = target: Neu5Ac(a2-6)Gal6S(b1-4)Glc
Summary of the method: as §1

[32] = target: Neu5Ac(a2-6)Gal6S(b1-4)Glc4S
Summary of the method: as §1

[33] = target: Neu5Ac(a2-6)GalNAc
Summary of the method: as §1

[34] = target: Neu5Ac(a2-6)Glc
Summary of the method: as §1

[35] = target: Neu5Ac(a2-6)Glc6S
Summary of the method: as §1

[36] = target: Neu5Ac(a2-6)GlcNAc
Summary of the method: as §1

[37] = target: Neu5Ac(a2-6)GlcNAc6S
Summary of the method: as §1

[38] = target: Neu5Ac(a2-8)Neu5Ac
Summary of the method: as §1

[39] = target: Neu5Ac(a2-8)Neu5Ac(a2-3)Gal
Summary of the method: as §1

[40] = target: Neu5Ac(a2-8)Neu5Ac(a2-3)Gal(b1-3)GalNAc(b1-4)[Neu5Ac(a2-3)]Gal(b1-4)Glc
Summary of the method: as §1

[41] = target: Neu5Ac(a2-8)Neu5Ac(a2-3)Gal(b1-3)GalNAc(b1-4)[Neu5Ac(a2-8)Neu5Ac(a2-3)]Gal(b1-4)Glc
Summary of the method: as §1

[42] = target: Neu5Ac(a2-8)Neu5Ac(a2-3)Gal(b1-4)Glc
Summary of the method: as §1

[43] = target: Neu5Ac(a2-8)Neu5Ac(a2-3)[Gal(b1-3)GalNAc(b1-4)]Gal(b1-4)Glc
Summary of the method: as §1

[44] = target: Neu5Ac(a2-8)Neu5Ac(a2-3)[GalNAc(b1-4)]Gal(b1-4)Glc
Summary of the method: as §1

[45] = target: Neu5Ac(a2-8)Neu5Ac(a2-6)Gal
Summary of the method: as §1

Measured: glycan array binding signal (z-score)

B1: HysACBM (Streptococcus pneumoniae), Q54873 (protein)
chain: KNLVENGDFGQTEDGSSPWTGSKAQGWSAWVDQKNSADASTRVIEAKDGAITISSHEKLRAALHRMVPIEAKKKYKLRFKIKTDNKIGIAKVRIIEESGKDKRLWNSATTSGTKDWQTIEADYSPTLDVDKIKLELFYETGTGTVSFKDIELVEVADQLS
0.16: [10]
-0.062: [8]
-0.091: [1] | [2] | [3] | [4] | [5] | [6] | [7] | [9] | [11] | [12] | [13] | [14] | [15] | [16] | [18] | [19] | [20] | [21] | [22] | [23] | [24] | [25] | [26] | [27] | [28] | [29] | [30] | [31] | [32] | [33] | [34] | [35] | [36] | [37] | [38] | [39] | [40] | [41] | [42] | [43] | [44] | [45]
-0.048: [17]
